Measurements: publication PMC4336329 (PLoS ONE, 2015)
The campaign covered roughly 310,000 compounds. About 2,200 (0.71%) showed an effect of 50% or more. The effect is printed as a negative number. Some of the results follow.

Target: human ether-à-go-go-related gene (hERG) potassium channel (human, UniProt Q12809)
Test: primary screen, population patch clamp on CHO cells stably expressing hERG

Chain of human ether-à-go-go-related gene (hERG) potassium channel (Q12809 whole entry, looked up): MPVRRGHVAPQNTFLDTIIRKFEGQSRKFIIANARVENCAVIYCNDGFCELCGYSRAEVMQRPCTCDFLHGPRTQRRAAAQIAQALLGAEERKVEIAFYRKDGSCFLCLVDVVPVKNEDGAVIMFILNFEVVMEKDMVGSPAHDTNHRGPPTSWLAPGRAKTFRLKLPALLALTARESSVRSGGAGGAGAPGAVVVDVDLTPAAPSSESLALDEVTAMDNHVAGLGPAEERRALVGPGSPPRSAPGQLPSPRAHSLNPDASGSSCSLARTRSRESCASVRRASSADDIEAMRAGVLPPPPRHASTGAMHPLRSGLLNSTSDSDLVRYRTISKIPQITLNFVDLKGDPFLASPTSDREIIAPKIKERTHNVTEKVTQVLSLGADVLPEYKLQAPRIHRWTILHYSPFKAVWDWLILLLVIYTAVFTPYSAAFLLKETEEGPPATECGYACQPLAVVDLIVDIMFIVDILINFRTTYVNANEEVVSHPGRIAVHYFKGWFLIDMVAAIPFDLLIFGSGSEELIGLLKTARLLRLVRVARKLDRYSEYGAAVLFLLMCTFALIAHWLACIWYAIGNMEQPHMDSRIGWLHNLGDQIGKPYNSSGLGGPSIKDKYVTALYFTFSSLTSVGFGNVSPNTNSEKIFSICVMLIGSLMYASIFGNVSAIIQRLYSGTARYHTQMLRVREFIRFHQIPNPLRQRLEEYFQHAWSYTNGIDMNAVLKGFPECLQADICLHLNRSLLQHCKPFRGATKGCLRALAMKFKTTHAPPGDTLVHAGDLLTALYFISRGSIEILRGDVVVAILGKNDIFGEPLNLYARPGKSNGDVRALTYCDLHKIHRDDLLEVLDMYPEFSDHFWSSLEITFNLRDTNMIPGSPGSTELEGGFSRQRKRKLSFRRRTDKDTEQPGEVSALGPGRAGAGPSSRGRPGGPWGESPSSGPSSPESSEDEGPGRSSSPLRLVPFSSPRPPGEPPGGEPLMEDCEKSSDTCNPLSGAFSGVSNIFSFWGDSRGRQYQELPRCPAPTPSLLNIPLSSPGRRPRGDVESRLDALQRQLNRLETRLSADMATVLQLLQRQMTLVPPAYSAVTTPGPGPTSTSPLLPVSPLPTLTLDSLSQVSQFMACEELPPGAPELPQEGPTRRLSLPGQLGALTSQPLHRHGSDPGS

SMILES	hERG current change (%, negative = inhibition) at 1uM [%]
O=C(N/N=C/c1cccnc1)c1cc(-c2cccs2)nc2ccccc12	7.79
CCO[C@H]1OC(C(=O)N2CCN(C)CC2)=C[C@@H](c2ccc(C(F)(F)F)cc2)[C@@H]1CCCO	6.07
COC(=O)c1ccc(C(=O)N(CCN(C)C)c2nc3c(Cl)cccc3s2)cc1.Cl	3.52
O=c1[nH]c(CN(CCc2ccccc2)S(=O)(=O)c2ccc(Cl)cc2)nc2ccccc12	6.8
Cc1nc2ccccc2n1CC(=O)NC1CCCC1	16.9
COc1cc(/C(O)=C(\C#N)c2nc3ccccc3[nH]2)cc(OC)c1OC	15.7
Cc1cccc(N(C)S(=O)(=O)c2ccc3[nH]cc(C(=O)N4CCOCC4)c(=O)c3c2)c1	9.44
O=C(Cn1c(=O)oc2ccccc21)Nc1ccc(Cl)cc1Cl	12.7
COc1ccc(C2NC(=O)NC(C)=C2C(=O)OCc2ccccc2)cc1 (stereo not shown)	9.73
CCSc1nnc(NC(=O)COc2ccccc2)s1	7.91
N#CC1(c2ccccc2)CCN(C2CC(=O)N(c3cccc(F)c3)C2=O)CC1 (stereo not shown)	12.4
CCOc1cc(NC(=O)c2ccco2)c(OCC)cc1NC(=O)Cc1ccc(OC)c(OC)c1	-0.812
CCNC(=S)NNC(=O)c1ccc(OC(F)F)cc1	11.7
CC(=O)Oc1ccc(C2C3=C(CC(C)(C)CC3=O)Nc3cc4c(cc32)OCCO4)cc1 (stereo not shown)	6.71
Cc1ccc(C)c(S(=O)(=O)N/N=C/c2ccc(F)cc2)c1	3.02
O=C(CSC(=S)N1CCOCC1)c1ccccc1	6.91
C=CC[C@@H]1Cc2c(Br)ccc(Br)c2[C@@H](CC=C)N1.Cl	9.15
CC1=C(C)NC(=S)SC1	12.6
O=C(c1ccc2nc(Cc3cccc(Cl)c3)oc2c1)N1CCC(CO)CC1	11.3
Cl.O=C(c1ccc(Cn2cc(Cl)cn2)o1)N1CCN(Cc2ccc3c(c2)OCO3)CC1	-13.3
COC(=O)N/N=C/c1c[nH]c2ccccc12	17.1
CCOC(=O)c1ccc(NC(=O)NNS(=O)(=O)c2cc(OC)ccc2OC)cc1	69.9

SMILES	hERG current change (%, negative = inhibition) at 1uM [%]
CC1CCN(S(=O)(=O)c2ccc(C(=O)Nc3ncccc3O)cc2)CC1	7.17
Cc1cccc(C(C)C)c1NC(=O)CN1C(=O)NC(Cc2ccccc2)C1=O (stereo not shown)	6.57
C/C(CC(=O)N(C(C)C)C(C)C)=N\NC(=O)COc1ccc(Cl)cc1Cl	11.4
Cc1cc(NCc2ccccc2)n2ncnc2n1	7.03
CCOC(=O)CN1C(=O)N[C@@H](c2cccc(F)c2)C(C(=O)OC)=C1C	15.1
CCCn1c(=O)c2ccccc2n2c(SCC(N)=O)nnc12	11
Fc1ccc(-c2ccc(/C=N\n3cnnc3)o2)cc1Cl	9
COc1ccccc1NC(=O)Cn1cnc2sc(C(=O)NCc3ccco3)c(C)c2c1=O	14.2
Cc1ccc(-n2nnnc2SCC(=O)Nc2cccc(NC(=O)c3ccco3)c2)cc1C	5
COc1ccccc1C1=NC(c2ccc(C)cc2)N=C1C (stereo not shown)	-3.45
O=C(Nc1cnccn1)c1ccc(Cl)cc1	7.97
COc1cccc(-n2nnnc2S(C)(=O)=O)c1	-0.242
O=c1/c(=C\c2ccc3c(c2)OCO3)sc2n1CCCN=2	5.5
O=C(NC1CCCCC1)C(c1ccc(F)cc1)N(Cc1ccccc1)C(=O)CN1C(=O)c2ccccc2S1(=O)=O (stereo not shown)	16.6
COc1ccc(C(=O)NCC2CCCO2)cc1OC (stereo not shown)	7.51
CC(C)Cn1c(SCC(=O)NC(=O)Nc2ccc3c(c2)OCCO3)nc2ccccc2c1=O	7.58
O=[N+]([O-])c1cccc(-c2nc(-c3ccncc3)no2)c1	0.854
Cc1ccccc1N/N=C/c1ccc(N2CCOCC2)cc1	11.6
COc1ccccc1C(=O)N/N=C/C(C)=C/c1ccccc1	-27.2
C/C=C/c1ccc(OCCOCCOc2cccc3cccnc23)c(OC)c1	5.07
COc1ccccc1NC(=O)c1c[nH]c2ccccc12	15
